# Assay results as given in the supplement of paper PMC8728848.
# This is one part of the list.
# B1: Epa1-NP-mutant-Y228A (Candida glabrata), Q6VBJ0 (protein)
# chain: MILNPALFLNKCVCIYTTLILLLLTNGGYATSSNDISLASKDPTTFPLGCSPDITTPKKGLSMELYSYDFRKKGSYPCWDAAYLDPNYPRTGYKSHRLLAKVDGVTGNINFYYHATKGCTPQLGHLPASYNYPKPLTMTNFTMLLYGYFRPKVTGFHTFTISADDLLFVNFGAGNAFDCCRRDSSADHFGNYQAYAIWGSKTAKDELTVHLDAGVYYPIRLFYNNREADGALSFTFKTESNENTVSDFSEYFFSLDDTEEGCPGLISYDSSCASVKTSKIIGIDYHTETPNENLVPITKTIYHLGIPCTGTTTTPLCGSGFYDPLANKCVTINTSSTSSVTKTTSHTTSKEVSFHSSISSQKTLIPKSIPSPYGPIKSQSIPTEMETSSEISSSEYAFSDVISTPSHSPYTKKHSSLNSSSYTSTVIHSLTSYSISQGIFSTSLSEQNITSKSSTDKFSTATSMSNNITQSSIIISQFSTNNENYTTTSMHTSSDKISTETLNNSISTTTSILFSNSSTILKNNTTIISSDKDTHYHPVNPTIVCSTNKTEIICASITQPSISNSNNHWSSSVLKFNSTTVRSTLPSSAGSNETSINVPFSSSTESNTSTSSTSTSNSKMVRSTLPSSAGSNETSISVPFSSSTESNTSTSSTSTSNSKMVRSTLPSSAGSNETSINVPFSSSTESNTSTSSTSTSNSKTVRSTPFSSAGIIMTSLSQRNNKSASSYASSNSKCYNTADSCRKVHSTPSYLLTSSYTSEGVDYDCSLVSTKLKINDTNCVNNKHTTKSCLKTSVTTTIPTLEIKTARKSSSNTIGLHSYPTSSPNKSISSAPIIGYISSFKTIKTASPSYQTSDLTTITTITSLNNPGSTAVENTHESNDKSRKTSSNDISSKHSVIKETKDAVESSNKSHQTNTLKCSSIIIASSSHNSYESLGGTTLTLTLSKVYSPQNNDTLPFLEISEVNPSRTVLPESSKMMQYLTSTEERNKTARNTIATNIVSISTFHFEGEGNAIRMGYTQLLLMLIGIIVMNIGT
# What was measured:
# Experiment in all cases: glycan array binding signal (z-score within array); higher = stronger binding
# Conditions in all cases: glycan notation: IUPAC condensed, linker removed; mutation: Y228A
# [1] = target: Fuc(a1-2)[Gal(a1-3)]Gal(b1-4)GlcNAc(b1-2)Man(a1-3)[Fuc(a1-2)[Gal(a1-3)]Gal(b1-4)GlcNAc(b1-2)Man(a1-6)]Man(b1-4)GlcNAc(b1-4)GlcNAc
# Method in brief: (§1)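 The Consortium for Functional Glycomics database supplied 3228 glycan arrays, of which those lacking an available protein sequence were dropped. The binding signal, a within-array Z-score, was averaged across arrays of the same protein sequence and across linkers. Negative scores can be read as non-binding.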
# [2] = target: Fuc(a1-2)[Gal(a1-3)]Gal(b1-4)GlcNAc(b1-2)Man(a1-3)[Fuc(a1-2)[Gal(a1-3)]Gal(b1-4)GlcNAc(b1-2)Man(a1-6)]Man(b1-4)GlcNAc(b1-4)[Fuc(a1-6)]GlcNAc
# Method in brief: as §1
# [3] = target: Fuc(a1-2)[Gal(a1-3)]Gal(b1-4)GlcNAc(b1-3)GalNAc
# Method in brief: as §1
# [4] = target: Fuc(a1-2)[Gal(a1-3)]Gal(b1-4)GlcNAc(b1-3)[Fuc(a1-2)[Gal(a1-3)]Gal(b1-4)GlcNAc(b1-6)]GalNAc
# Method in brief: as §1
# [5] = target: Fuc(a1-2)[Gal(a1-3)]Gal(b1-4)GlcNAc(b1-6)GalNAc
# Method in brief: as §1
# [6] = target: Fuc(a1-2)[Gal(a1-3)]Gal(b1-4)[Fuc(a1-3)]Glc
# Method in brief: as §1
# [7] = target: Fuc(a1-2)[Gal(a1-3)]Gal(b1-4)[Fuc(a1-3)]GlcNAc
# Method in brief: as §1
# [8] = target: Fuc(a1-2)[Gal(a1-3)]Gal(b1-4)[Fuc(a1-3)]GlcNAc(b1-3)GalNAc
# Method in brief: as §1
# [9] = target: Fuc(a1-2)[Gal(a1-4)]Gal(b1-4)GlcNAc
# Method in brief: as §1
# [10] = target: Fuc(a1-2)[GalNAc(a1-3)]Gal
# Method in brief: as §1
# [11] = target: Fuc(a1-2)[GalNAc(a1-3)]Gal(b1-3)GalNAc(a1-3)[Fuc(a1-2)]Gal(b1-4)GlcNAc
# Method in brief: as §1
# [12] = target: Fuc(a1-2)[GalNAc(a1-3)]Gal(b1-3)GalNAc(b1-3)Gal(a1-4)Gal(b1-4)Glc
# Method in brief: as §1
# [13] = target: Fuc(a1-2)[GalNAc(a1-3)]Gal(b1-3)GlcNAc
# Method in brief: as §1
# [14] = target: Fuc(a1-2)[GalNAc(a1-3)]Gal(b1-3)GlcNAc(b1-2)Man(a1-3)[Fuc(a1-2)[GalNAc(a1-3)]Gal(b1-3)GlcNAc(b1-2)Man(a1-6)]Man(b1-4)GlcNAc(b1-4)GlcNAc
# Method in brief: as §1
# [15] = target: Fuc(a1-2)[GalNAc(a1-3)]Gal(b1-3)GlcNAc(b1-2)Man(a1-3)[Fuc(a1-2)[GalNAc(a1-3)]Gal(b1-3)GlcNAc(b1-2)Man(a1-6)]Man(b1-4)GlcNAc(b1-4)[Fuc(a1-6)]GlcNAc
# Method in brief: as §1
# [16] = target: Fuc(a1-2)[GalNAc(a1-3)]Gal(b1-3)GlcNAc(b1-3)GalNAc
# Method in brief: as §1
# [17] = target: Fuc(a1-2)[GalNAc(a1-3)]Gal(b1-3)GlcNAc(b1-6)GalNAc
# Method in brief: as §1
# [18] = target: Fuc(a1-2)[GalNAc(a1-3)]Gal(b1-4)Glc
# Method in brief: as §1
# [19] = target: Fuc(a1-2)[GalNAc(a1-3)]Gal(b1-4)GlcNAc
# Method in brief: as §1
# [20] = target: Fuc(a1-2)[GalNAc(a1-3)]Gal(b1-4)GlcNAc(b1-2)Man
# Method in brief: as §1
# [21] = target: Fuc(a1-2)[GalNAc(a1-3)]Gal(b1-4)GlcNAc(b1-2)Man(a1-3)[Fuc(a1-2)[GalNAc(a1-3)]Gal(b1-4)GlcNAc(b1-2)Man(a1-6)]Man(b1-4)GlcNAc(b1-4)GlcNAc
# Method in brief: as §1
# [22] = target: Fuc(a1-2)[GalNAc(a1-3)]Gal(b1-4)GlcNAc(b1-2)Man(a1-3)[Fuc(a1-2)[GalNAc(a1-3)]Gal(b1-4)GlcNAc(b1-2)Man(a1-6)]Man(b1-4)GlcNAc(b1-4)[Fuc(a1-6)]GlcNAc
# Method in brief: as §1
# [23] = target: Fuc(a1-2)[GalNAc(a1-3)]Gal(b1-4)GlcNAc(b1-3)Gal(b1-4)GlcNAc
# Method in brief: as §1
# [24] = target: Fuc(a1-2)[GalNAc(a1-3)]Gal(b1-4)GlcNAc(b1-3)Gal(b1-4)GlcNAc(b1-3)Gal(b1-4)GlcNAc
# Method in brief: as §1
# [25] = target: Fuc(a1-2)[GalNAc(a1-3)]Gal(b1-4)GlcNAc(b1-3)GalNAc
# Method in brief: as §1
# [26] = target: Fuc(a1-2)[GalNAc(a1-3)]Gal(b1-4)GlcNAc(b1-3)[Fuc(a1-2)[GalNAc(a1-3)]Gal(b1-4)GlcNAc(b1-6)]GalNAc
# Method in brief: as §1
# [27] = target: Fuc(a1-2)[GalNAc(a1-3)]Gal(b1-4)GlcNAc(b1-6)GalNAc
# Method in brief: as §1
# [28] = target: Fuc(a1-2)[GalNAc(a1-3)]Gal(b1-4)[Fuc(a1-3)]GlcNAc
# Method in brief: as §1
# [29] = target: Fuc(a1-2)[GalNAc(a1-3)]Gal(b1-4)[Fuc(a1-3)]GlcNAc(b1-3)GalNAc
# Method in brief: as §1
# [30] = target: Fuc(a1-2)[GalNAc(a1-4)]Gal(b1-4)GlcNAc
# Method in brief: as §1
binder,measurement,setting,value
B1,glycan array binding signal (z-score),[1],-0.11
same,glycan array binding signal (z-score),[2],-0.271
same,glycan array binding signal (z-score),[3],-0.074
same,glycan array binding signal (z-score),[4],-0.15
same,glycan array binding signal (z-score),[5],0.01
same,glycan array binding signal (z-score),[6],-0.203
same,glycan array binding signal (z-score),[7],-0.183
same,glycan array binding signal (z-score),[8],-0.061
same,glycan array binding signal (z-score),[9],-0.062
same,glycan array binding signal (z-score),[10],-0.148
same,glycan array binding signal (z-score),[11],-0.281
same,glycan array binding signal (z-score),[12],-0.248
same,glycan array binding signal (z-score),[13],-0.2
same,glycan array binding signal (z-score),[14],-0.295
same,glycan array binding signal (z-score),[15],-0.178
same,glycan array binding signal (z-score),[16],0.018
same,glycan array binding signal (z-score),[17],-0.252
same,glycan array binding signal (z-score),[18],-0.225
same,glycan array binding signal (z-score),[19],-0.198
same,glycan array binding signal (z-score),[20],-0.307
same,glycan array binding signal (z-score),[21],-0.148
same,glycan array binding signal (z-score),[22],-0.147
same,glycan array binding signal (z-score),[23],-0.101
same,glycan array binding signal (z-score),[24],-0.057
same,glycan array binding signal (z-score),[25],-0.186
same,glycan array binding signal (z-score),[26],-0.156
same,glycan array binding signal (z-score),[27],-0.248
same,glycan array binding signal (z-score),[28],-0.096
same,glycan array binding signal (z-score),[29],-0.066
same,glycan array binding signal (z-score),[30],-0.183
